In all, about 33,000 sequences were measured (“E-score (-0.5 to 0.5)”: median about -0.016, highest 2% from about 0.31 on). The list shows a part of the results.
These sequences were tested against Cst6 (UniProt P40535) (assay: PBM E-score (8-mer binding enrichment) (E-score (-0.5 to 0.5)); higher = stronger / more preferred TF binding; most listed sequences are background and not binding sites). Conditions: protein concentration: 200 nM; construct: GST-DNA-binding domain.
Outline: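 Yeast transcription factors, full-length or as DNA-binding domains, were expressed with a GST tag using PURExpress in vitro transcription/translation. At about 100-200 nM they were applied to universal all-10-mer Agilent arrays, double-stranded by primer extension on fresh or once-stripped slides. Fluorescent anti-GST detected bound protein, and masliner normalised the scans. E-scores for ungapped eight-base words, pooled with reverse complements, came from the Universal PBM Analysis Suite.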

Sequence	PBM E-score
CATACTAA	0.124
ACTGATAA	0.235
TAGAGATA	0.12
CCGACGTC	0.2
AGGAGGGG	-0.121
GCACATTA	0.0946
AACTCGCA	0.111
AAATTGAA	0.187
CTCACGAA	0.0504
CCTAGCCA	-0.181
ATATGGGA	-0.0946
AAGAGAAC	0.141
CAAAGAAG	0.0502
CCATGGAG	-0.306
GACAGCAC	0.0288
AGCGGGTC	-0.392
GACAGAAA	0.311
CGCAGCAG	-0.0698
GTGCCGAA	0.13
AGGCAGGA	-0.151
AAGAACAG	0.0582
AGTTGTAC	-0.0957
CGAGAGTC	-0.292
CGGCTTAC	0.0799
AAGGAAAT	0.165

Sequence	PBM E-score
ATCTGTCC	-0.106
ACACCCGT	-0.172
GTCCGAAA	0.163
CGCAAGGA	-0.158
GGGCTATA	-0.21
AGTGTGTC	0.0534
CGAACAAG	-0.0308
ATTAGAGA	0.116
GCATGATA	0.122
CCAGTCAG	-0.162
ACCACTAA	0.138
ACGACAAT	0.128
AAGGTGGT	-0.0498
GCGGCACC	0.311
CGCTCTTA	0.172
CTGACCCA	-0.295
CCCGTTGC	-0.177
GCTGCGAC	-0.186
GCAAGTTA	0.0542
TGTGCACA	-0.076
CAACGTAG	0.0788
ATACGACG	0.0843
GCAGACGA	-0.128
CCGTTAGA	0.0721
AAGTTAGC	0.0182

Sequence	PBM E-score
ATATTCCG	0.0507
CGCGGAGC	-0.23
CATAGTGC	-0.00152
GGTTTGAA	0.14
TATATAGA	0.232
AGGTGCGG	-0.0628
GGTGCACA	-0.05
ATCGAAAG	0.0837
AAGACAGA	0.147
AAACATTT	0.127
GTTCGAAC	0.2
CTTAAGGA	-0.0903
ATGCTCTC	-0.249
ACGTGGCG	0.129
ATACCCGC	0.164
CTACGGGA	-0.264
AGTCGAAG	-0.0655
ACCTCGCT	-0.00948
ACCGCACT	-0.0604
CCTATTTA	-0.0607
AGGAACCC	-0.362
AATAACAG	0.218
CAACAGGA	-0.183
CCCTGGAC	-0.262
GCCTATTA	0.12

Sequence	PBM E-score
CACGACAG	-0.0272
CATGAACA	0.177
AATTCTCC	-0.109
GCCACCCC	-0.249
ACAGACGT	0.0849
CACATATA	0.136
CATTGATA	0.115
TGAAGTCA	0.372
AGCCCGTC	-0.245
AAAACGAA	0.214
CGGATGCC	0.0864
AATATTGG	0.0316
AATGGTTG	0.156
AGGCCGCG	-0.0421
CAAACTCG	-0.131
AGTATGAG	0.0817
CGTTAGAC	0.00283
ATTCGCAC	-0.0389
GATAGAGA	-0.0352
ACCGGAAT	-0.258
GAACGGAA	-1e-05
CAAATGAG	0.0889
AGCTCATA	0.124
ACACAACT	0.0608
AGCATTGA	0.0164

Sequence	PBM E-score
TTCGTAAA	0.23
AGGGAGCA	-0.335
CTGTAGGA	-0.0316
AAGAGGCG	0.0602
AGAGCCAC	-0.0666
AAGCACTT	-0.105
GCCTAGCC	-0.215
CGTGACCA	-0.0809
GCCCGTGA	-0.0557
GCGAGCCC	-0.227
AATAGTCG	-0.00096
CGGTAACA	0.16
CCTAGATA	-0.271
GTGGACTA	-0.0092
GGCAGGCA	-0.193
CCTCAAGC	-0.221
AAGCGGTG	-0.147
CAAATAAA	0.197
ACGCGCCT	0.0749
GTGCGGGA	-0.183
CCCATGAC	0.336
AAGGTATT	0.083
AAAACGTT	0.0179
ACCGGATA	-0.0988
CAATAGTC	0.0352

Sequence	PBM E-score
CTAATGAG	-0.0645
ATGTTACC	0.0741
CCGCACGA	0.0776
ATAGCACG	-0.0423
AGTGCGCG	-0.0765
GTGATCAA	0.205
CAGATAGG	-0.122
AGCGATAC	-0.128
CTGAATAC	0.168
TCATGCAA	0.148
CAGAAAAG	0.126
AAATCTCC	-0.258
AAGTCGAT	-0.0963
AATCCAGC	-0.208
GATACCCC	-0.298
ACTCATCT	0.0268
CAATTCGG	0.0126
CTGGAGAA	-0.204
AGCCCCAA	-0.281
CCACACTA	0.149
CCTATGTC	0.0555
ACGCGCAG	-0.14
GAAATCGC	-0.126
AACTGTTC	-0.117
CCCCCTAG	-0.321

Sequence	PBM E-score
CACATCGA	-0.074
AAGAACAT	0.194
CAAAGTTG	0.117
AAGGGGAT	-0.118
ATATTCGC	0.159
GTCCGAGA	0.0681
CGGCTAGC	-0.149
TCCCCGCA	-0.0633
GGCCAAAC	-0.235
AGTCTTGG	-0.0162
CATTGGCA	-0.0341
AACTCACT	-0.0817
CACTTTGA	-0.0952
CGAATTTA	0.253
GCAATGTA	-0.0392
ACCCCTGC	-0.391
TAGGCATA	-0.0691
GCATTGGC	-0.188
AAGCGCCT	-0.0226
GAGGGCCC	-0.288
TATTATGA	0.268
GCCTGCCC	-0.299
AACCGCGG	0.144
CTGAGTTA	-0.0425
ATTGGATC	0.0799

Sequence	PBM E-score
CGGGAGGC	-0.284
TGGTACAA	-0.0168
ACTAATCC	-0.0346
ATCACGTA	0.344
GCCACACC	0.036
ATTTGTAG	0.168
GCACGTCA	0.459
CCTACAAC	0.0423
CATGTTAG	-0.0475
ATGATTTG	0.0624
AGCCGGCA	-0.233
AGAGCGAT	-0.2
ATCTCAGG	-0.0658
AGCCAACA	-0.0616
ACCAAAGC	0.00829
AGGGTGGG	-0.00684
ACGCGTGC	0.0345
ATTCGCAG	0.152
ACAAGGAG	-0.00622
AAGTTAGA	0.113
ACAAGATG	0.0277
CGAGATAG	-0.17
TAATCCGA	0.0425
CTTAAAAG	-0.18
CCATACAC	0.025

Sequence	PBM E-score
AGCGCGAG	-0.0497
AAGCCACG	0.0393
AAATTGGC	0.0384
AACGGCTG	-0.0838
GCGTTAAC	0.132
CTTTATGC	0.112
ACATCGAG	-0.123
TTGTAAAA	0.137
ACAGAAAT	0.235
TCGAAGAA	0.0665
ACCTGTAA	0.0591
CCCAGTAA	-0.101
AGGCTCAT	-0.0641
ACCAGAAA	-0.0587
CCCTCCAA	-0.13
ACTATCTG	-0.0119
AAGTGCAT	0.248
CCCGCGCG	0.165
GAGAGAAA	0.0857
GCCAGCTA	-0.139
CGGGTGAA	0.0903
GGCCGGAC	-0.132
ATCCAGGG	-0.22
AGTCCGGG	-0.228
CGTCGCCA	-0.0999

Sequence	PBM E-score
CTGCCTAC	-0.0193
GGACCCAA	-0.283
GCTATTCA	0.0257
TAACCGTA	0.0149
CCATTCCC	-0.296
CGTGAACG	-0.241
CTAGGATA	-0.125
ACGCTATG	0.113
CGTTCACC	-0.00233
AAAACGTA	0.206
ATTGATTG	0.237
GCTTTAAC	0.135
ATAAATTG	0.258
AGTATCTC	-0.00375
AAAACATA	0.243
GACGGATC	-0.0698
AATACGTG	0.176
GACTTTGC	-0.051
AAGAGCTA	0.119
CTTGGCGA	-0.243
AGACCAAC	-0.218
CAAGGATG	-0.0287
GGCTCAAA	0.06
CCAACCTC	-0.0635
ACTCGCCC	-0.324

Sequence	PBM E-score
AAAAATAT	0.309
GCGATCAC	-0.105
TAATTAGA	0.116
AATGCCGG	-0.0561
ACACGTTC	-0.0249
TGACATCA	0.496
GTCAGCAA	0.232
ACCATCGA	-0.0265
AGCCATTA	0.14
AAGAAACC	-0.107
ACGGCCGG	0.0362
TAAGCGAA	0.1
AATCTTGC	0.137
ACATTTGA	0.151
CATAGGCC	-0.248
CTACATAA	-0.0447
GTTGCAAC	0.264
TATAACCA	0.224
CTAAAGTC	-0.293
CCTGGAGC	-0.109
ACTATTAC	0.201
ATGCGCGA	-0.215
TCGATCCA	-0.0945
ACTGGAGA	-0.145
ATCACAAG	0.117

Sequence	PBM E-score
ATGCTTGA	0.0953
ATCAGCAA	-0.0659
AAAGACCC	-0.0843
GCTGAAAA	0.0425
AACACCAC	0.0267
AGTAGTCA	0.144
CGGATCCA	-0.065
GAAGGCTA	-0.0593
CTATGAAC	0.0157
CTCTTTTC	-0.018
CTGAGAAA	0.0114
GACGTGTA	0.214
AACACGAA	0.0914
CTCCCGGA	-0.305
AAGATGCG	-0.0184
AGAGGACT	-0.304
AGGTTTAC	-0.125
ATCCGATA	-0.137
GGGTATCA	-0.179
CACGACAA	0.0719
CTCCCCTC	-0.312
AAGTACAA	0.0914
ACTCTCTG	-0.149
ATTTGTTC	0.332
CGCACGCC	0.00326

Sequence	PBM E-score
GGTCGTAA	0.115
AAGGTGCG	-0.203
CCGGGACA	-0.227
GCTGTACC	-0.205
AGGATTAG	-0.105
GAGACAAC	-0.0788
AAAGCAGT	0.147
ACTCAGAA	0.13
AGGTTAAT	0.0615
CTTATCTC	0.0912
AACGAGGG	-0.235
CAGACCTG	-0.171
GAGTGTCC	-0.00028
AATAACCT	0.011
AGGCATAC	-0.0324
ACATTCAA	-0.0582
AGCTTACC	-0.192
GAGGTGAC	0.407
CCATCATA	0.122
CGGAATGC	-0.0293
ACGTCACG	0.49
AATGGCCC	-0.232
GCTATACC	-0.19
AGCACCTG	-0.159
CGCTCACC	-0.1

Sequence	PBM E-score
ACCTGCCC	-0.19
AATGCCAA	-0.0265
AACGGTCC	-0.263
AAACAAGC	-0.0352
AAGCTACC	-0.0478
TACTCGCA	0.0358
ACACTCAA	0.18
GTTACGGA	0.11
GGCCCGAC	-0.258
AACTCTTA	0.0314
GACATCGA	0.153
CGCACCGC	-0.136
ATCGAGGA	-0.0369
ATGTATTA	0.254
CACCATGG	-0.223
GTAATCTA	0.345
ACGCGCTC	-0.0884
ATCTACAA	0.122
ACATGCGC	0.0396

From the supplement of paper PMC3334620
